Out of some 410,000 compounds screened, about 7,200 (1.8%) were called active. The shares of active, inactive and inconclusive entries below differ from those in the screen. The call rests on the fitted dose curve; in most records, active means well fitted activation curve with a large enough effect; inconclusive means small, poorly fitted or top-dose-only effect, or another doubt; inactive means no such curve, though single readings can be large or run the other way. No potency is given beside an inconclusive call; the fits are too rough.
test: qHTS of TDP-43 Inhibitors; conditions: TDP-43 expressing yeast growth rescue, BacTiter-Glo, 24 h; growth rescue (activation): at 46.1 µM (top of the series) unless noted; further: nearly all actives have a fitted effect of over 50% in size; on growth rescue (activation): % of control where 0% means no effect
Procedure, shortened: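 Cell-based yeast growth screen: TDP-43 expression induced in galactose, inoculum OD600=0.02 after raffinose pregrowth to mid-log. Read-out BacTiter-Glo luminescence at 24 hr, 30 deg C; inhibition of toxicity seen as signal increase.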
Potency means the concentration at half of the fitted maximal effect; tags describe the fitted curve by direction and shape.

| SMILES | Potency | growth rescue (activation) |
| --- | --- | --- |
| COc1ccccc1OCCn1cc(/C=N/NC(=O)c2ccncc2)c2ccccc21 | active: 12.6 µM | – |
| Cc1ccsc1C(=O)Nc1ccccc1N1CCCC1 | inconclusive [activator, partial curve] | – |
| Cc1ccc(S(=O)(=O)N2CCCCC2CCNC(=O)C(=O)NCCc2ccco2)cc1 (stereo not given) | inconclusive [activator, partial curve] | – |
| CCOc1ccc(C2=C(C(=O)CC)Sc3nncn3N2C(=O)CC)cc1 | active: 20 µM | – |
| CN(C)C(=O)NC(Nc1ccc(Cl)cc1Cl)C(Cl)(Cl)Cl (stereo not given) | inconclusive [activator, single point] | – |
| O=C(N/N=C\c1ccc([N+](=O)[O-])o1)C1COc2ccccc2O1 (stereo not given) | inconclusive [activator, partial curve] | – |
| CCC(CC)NC(=O)C1CCN(c2ccc(S(=O)(=O)N3CCOCC3)cc2[N+](=O)[O-])CC1 | inconclusive [activator, partial curve] | – |
| Cc1[nH]c2ccccc2c1C(=O)COC(=O)Cn1cnc2ccccc21 | inconclusive [activator, partial curve] | – |
| O=C(CSc1ncc(-c2ccccc2)[nH]1)Nc1ccc(F)cc1F | inconclusive [activator, full curve] | – |
| COc1ccc(CNC(=O)CN=C2NC(=O)C(c3ccccc3)(c3ccccc3)N2)cc1 | – | inactive: 26.9% |
| COc1ccc(CCNC(=O)CSc2cn(CCNC(=O)c3ccccc3F)c3ccccc23)cc1OC | – | inactive: 4.96% |
| Cc1ccccc1Cc1c(C)nc2c(C(=O)N3CCN(Cc4ccc5c(c4)OCO5)CC3)cnn2c1C | – | inactive: -17.1% |
| COc1ccc(OCC(=O)Nc2ccccc2N2CCCCC2)cc1 | active: 11.2 µM | – |
| COc1cccc(Cn2nc(C(=O)O)c3ccccc3c2=O)c1 | inconclusive [activator, partial curve] | – |
| Nc1cccc(N2C(=O)c3cccc4c(N)ccc(c34)C2=O)c1 | – | inactive: -2.92% |
| CCOC(=O)C(C)Sc1snnc1C (stereo not given) | inconclusive [activator, single point] | – |
| COCCNC(=S)NN=C1CCCCC1 | – | inactive: -18.4% |
| O=C(Cn1nnc2ccccc2c1=O)N[C@@H](Cc1ccccc1)C(=O)O | – | inactive: -2.23% |
| COC(=O)c1ccccc1NC(=O)NCCc1ccc(OC)c(OC)c1 | inconclusive [activator, partial curve] | – |
| COc1cc(C2CC(=O)N3CN(Cc4ccccc4)CSC3=C2C#N)ccc1OCc1ccccc1 (stereo not given) | inconclusive [activator, full curve, poor fit] | – |

— PubChem BioAssay AID652104 (National Center for Advancing Translational Sciences (NCATS), 2013)
